Hit rate of the full screen: of about 94,000 compounds, about 4,000 (4.3%) were called active. Inconclusive means that the source gave no clear call. Such entries were picked first, then a sample of the others. Calls come from the whole dose curve; as a rule, active = well fitted inhibition curve with a large enough effect; inconclusive = small, poorly fitted or top-dose-only effect; inactive = no such curve, though single readings can be large or run the other way. Potencies beside an inconclusive call are fits to weak or partial responses and may not hold up.
Experiment: Cytotoxic Profiling in NIH 3T3 Cell Line of Diverse Libraries Using Quantitative High-Throughput Screening; note: nearly all actives have a fitted effect of over 55% in size
Conditions: NIH 3T3 viability, CellTiter-Glo ATP luminescence, 48-72 h; activity change, negative = cytotoxicity: at 96.7 µM (top of the series) unless noted; series mostly up to 96.7 µM
Procedure, shortened: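 Cells were seeded at 400 per well, treated with pin-transferred compound, and kept 48 or 72 hr at 37 °C before CellTiter-Glo addition and luminescence imaging of cellular ATP.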
With `CCC[C@@H]1CN(c2nc(SC)ncc2C(=O)OCC)C[C@H]1N(C)C` the “activity change, negative = cytotoxicity” value was inactive: -15%. In the case of `CC(C)Oc1cccc(-c2nc(C(=O)NCc3ccc(F)cc3)cs2)c1`, the Potency is reported as inconclusive: 50.1 µM [inhibitor, partial curve, poor fit]. In the case of `COc1ccccc1-c1cc(-c2cn[nH]c2)c2onc(C)c2n1`, the Potency is reported as inconclusive: 56.2 µM [inhibitor, partial curve, poor fit]. With `COc1ccc(C(=O)Nc2ccc(-c3noc([C@@H]4CCCN4Cc4c[nH]c5ccccc45)n3)cn2)cc1` the Potency was inconclusive: 12.6 µM [inhibitor, full curve, poor fit]. With `O=C(C1CC1)N1CCc2nc(-c3ccc(Cl)cc3)nc(-c3ccccc3)c2C1` the Potency was inconclusive: 50.1 µM [inhibitor, partial curve, poor fit]. For `COc1ccc2nc(C[C@@H]3C[C@@H](C(C)C)[C@H](CNC(=O)COCC(=O)O)C=C3C)[nH]c2c1`, the “activity change, negative = cytotoxicity” value was inactive: -13.1% [at 174 µM]. With `Cc1cc(C(=O)N2CC(F)(F)C[C@H]2c2nc(C3CC3)no2)on1` the “activity change, negative = cytotoxicity” value was inactive: -13.6%. In the case of `c1ccc(-c2nnc3n2CCN(CC2CCCCC2)C3)cc1`, the Potency is reported as “inactive”. For `C[C@@H]1C(=O)O[C@H]2[C@H]1CC[C@@]1(C)Cc3sc(Nc4ccccc4)nc3[C@@H](C)[C@H]21`, the Potency was inconclusive: 31.6 µM [inhibitor, full curve]. With `C[C@@H]1CN(C(=O)Cn2ccc(=O)[nH]c2=O)C[C@@]1(O)C1CCC1` the “activity change, negative = cytotoxicity” value was inactive: -13.5%. With `COCCNc1nc2c(S(=O)(=O)c3ccc(C)c(C)c3)nnn2c2ccccc12` the Potency was inconclusive: 44.7 µM [inhibitor, partial curve, poor fit]. With `Cc1nc(N2CCN(C(=O)c3ccc(Cl)cc3)CC2)cc(C(F)(F)F)n1` the Potency was inconclusive: 44.7 µM [inhibitor, partial curve, poor fit]. For `O=C(Nc1cccc(-c2nnc3n2CCCC3)c1)c1ccc(F)cc1`, the Potency was inconclusive: 44.7 µM [inhibitor, partial curve, poor fit]. In the case of `CCCS(=O)(=O)N1CCc2nn(CC3CC3)c(=O)n2CC1`, the “activity change, negative = cytotoxicity” value is reported as inactive: -10.5%. For `CC(C)C[C@@H]1N[C@H](C(=O)NCc2ccccn2)Cc2c[nH]c3cccc1c23`, the Potency was inconclusive: 56.2 µM [inhibitor, partial curve, poor fit]. With `O=C(c1cc(F)cc(F)c1)N1CCC(Cc2nc(-c3ccc(F)cc3)no2)CC1` the Potency was inconclusive: 2.82 µM [inhibitor, full curve, poor fit]. In the case of `COCC1CN(C)CC12CCN(Cc1ccc(OC)c(Cn3ccnc3)c1)CC2` (centres undefined), the Potency is reported as inconclusive: 50.1 µM [inhibitor, partial curve, poor fit]. With `O=C(NC1CCN(c2nc3ncccc3o2)C1)c1ccc(C(F)(F)F)cc1` (centres undefined) the “activity change, negative = cytotoxicity” value was inactive: -12.1%. With `O=C(C1CCCN([S+](=O)([O-])c2cccs2)C1)N1CCC(N2Cc3cccn3C2=O)CC1` (centres undefined) the Potency was inconclusive: 70.8 µM [inhibitor, single point]. With `CC(=O)N1CCOc2ccc(CCC(=O)NC(C)Cn3ccc(C)n3)cc2C1` (centres undefined) the “activity change, negative = cytotoxicity” value was inactive: -8.42%. In the case of `Cn1ncc2c(C(=O)N3CCCCC3)cc(-c3ccc(C(F)(F)F)cc3)nc21`, the Potency is reported as inconclusive: 35.5 µM [inhibitor, partial curve, poor fit]. With `Cc1onc(-c2cnn(C)c2NCCc2ccccc2)c1C(=O)N1CCN(C)C(=O)C1` the Potency was inconclusive: 79.4 µM [inhibitor, partial curve, poor fit]. In the case of `O=C(Nc1ccc(Cl)cc1)NC1CCN(c2nccc(Nc3ccccc3Cl)n2)CC1`, the Potency is reported as inconclusive: 44.7 µM [inhibitor, partial curve, poor fit]. With `CCC(CC)N1CC[C@H](CO)[C@H](NC(=O)c2ccccc2)C1` the “activity change, negative = cytotoxicity” value was inactive: -7.39%. With `O=C(Nc1cccc(Cl)c1)C1CCCN(c2ccnc3ccnn23)C1` (centres undefined) the Potency was inconclusive: 35.5 µM [inhibitor, partial curve]. In the case of `CC(=O)NC(C)c1nnc2n1CCN(C(=O)c1ccc(C(F)(F)F)cc1)C2` (centres undefined), the “activity change, negative = cytotoxicity” value is reported as inactive: -1.11%. With `O=C(c1cccc(Cl)c1)N1CCC(n2cc(-c3nc(-c4ccccc4)no3)nn2)C1` (centres undefined) the Potency was inconclusive: 44.7 µM [inhibitor, partial curve, poor fit]. With `Cc1ccc(-c2noc([C@@H]3C[C@@H](O)CN3Cc3ccc(S(C)(=O)=O)cc3)n2)cc1F` the Potency was inconclusive: 89.1 µM [inhibitor, partial curve]. In the case of `O=C(NCCCc1ccccc1)C1(c2ccc(Cl)cc2)CCOCC1`, the Potency is reported as inconclusive: 50.1 µM [inhibitor, partial curve, poor fit]. For `COc1cc(F)ccc1-c1nc(-c2c(C)noc2C)cc2c1cc(C)n2C`, the Potency was inconclusive: 79.4 µM [inhibitor, partial curve]. In the case of `COCC1CN(C2CCC2)CC12CCN(C(=O)c1cccc(OC)c1)CC2` (centres undefined), the Potency is reported as inconclusive: 50.1 µM [inhibitor, partial curve, poor fit]. With `Cc1noc(C)c1C(=O)NC1CCN(c2ccc3nnc(C)n3n2)C1` (centres undefined) the “activity change, negative = cytotoxicity” value was inactive: -9.36%. With `Cc1cc2cc(-c3c(C)noc3C)nc(NCc3cccc(F)c3)c2o1` the Potency was inconclusive: 63.1 µM [inhibitor, partial curve, poor fit]. With `COc1ccc(-c2noc(-c3cccn3CC(=O)NC3CCCCC3)n2)cc1F` the “activity change, negative = cytotoxicity” value was inactive: 2.69%. With `CN1CCOc2c(C(=O)NCc3cnn(C)c3)cc(-c3ccc([S+](C)(=O)[O-])cc3)cc21` the Potency was inconclusive: 79.4 µM [inhibitor, partial curve, poor fit]. With `CC(=O)N1CCC(N2CC[C@@H](CO)N(C)c3ncccc3C2)CC1` the Potency was active: 44.7 µM. For `Cc1ccc(CN2C(=O)OC(c3cccc(NC(=O)c4ccccc4)c3)C2C(=O)NCCC(C)C)cc1` (centres undefined), the Potency was inconclusive: 35.5 µM [inhibitor, full curve, poor fit]. For `C[S+](=O)([O-])N1CCC(c2nnc3n2C(C(=O)NC2CCCCCC2)CC3)CC1` (centres undefined), the Potency was inconclusive: 50.1 µM [inhibitor, partial curve, poor fit]. With `CCOc1ccccc1CN1CCCN(S(=O)(=O)c2ccccc2)CCC(=O)NCC1` the Potency was inconclusive: 35.5 µM [inhibitor, partial curve].

Reference: PubChem BioAssay AID1345082 (National Center for Advancing Translational Sciences (NCATS), 2018)
% is set by controls: 0 for no effect and ±100 for the full control effect; potency is the fitted concentration of half-maximal effect; tags give direction and shape of the fitted curve.
